Source: the supplement of paper PMC3334620
Whole data set: some 33,000 sequences, median “E-score (-0.5 to 0.5)” near -0.054, cut for the highest 2% near 0.39. The list shows a part of the results.

biological target: Ylr278c (UniProt Q05854); assay: PBM E-score (8-mer binding enrichment) (E-score (-0.5 to 0.5)); higher = stronger / more preferred TF binding; most listed sequences are background and not binding sites; conditions: protein concentration: 200 nM; construct: GST-DNA-binding domain
How it was run: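 E-scores (a modified Wilcoxon-Mann-Whitney statistic) were assigned by the Universal PBM Analysis Suite to every ungapped eight-base word pooled with its reverse complement. The input came from universal all-10-mer Agilent arrays made double-stranded by primer extension and probed with GST-tagged yeast transcription factors at about 100-200 nM. Fluorescent anti-GST detected bound protein, and masliner normalised the scans.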

Sequence | PBM E-score
CAGTAAGG | -0.174
CTTAGCGC | 0.133
AAACGAAT | -0.0901
AGAACGAC | -0.174
ACCGTGCT | -0.226
GGACCGCC | 0.182
CGCTCGAC | -0.16
TCGGATCA | 0.225
CTCCTGAC | -0.0625
CAGGTATG | -0.131
AGTATTGG | -0.229
AAAAAGCA | -0.289
GAGTTCAC | 0.0107
TACCAATA | -0.145
AAAGGATG | -0.189
AAAGTCAC | -0.163
CCACATAG | 0.0447
TCACTACA | 0.00155
CCCCCTAA | -0.321
CCCTTTCG | 0.116
AACTTCAC | -0.214
AGGCTAGC | -0.282
AGTTCTAG | -0.021
CAGCCAAG | -0.217
AACTGGGG | 0.00524

Sequence | PBM E-score
ATGTAACG | 0.0305
AAAGACAC | -0.0398
ATACTACC | -0.0824
CGAACAAC | 0.0958
ATAATACA | 0.0827
CGTCAGCC | 0.127
GATGAACC | 0.00674
ATAGTCCG | 0.413
GATGGGCC | 0.0873
AGTCATAG | -0.238
TAAGAGAA | -0.248
TGAACACA | -0.133
GATGGCTA | -0.0289
CTTTCGAA | -0.198
ATAGGTAC | -0.104
AGACCATG | -0.306
ACCTAGGG | -0.141
GTTAGAGA | -0.272
AATTCCCA | -0.035
CTCTACTC | -0.156
AAACTAGA | -0.217
AGAACTTA | 0.0233
CACGTCAC | -0.147
GGGATCCA | 0.18
CGTGTAGA | 0.012

Sequence | PBM E-score
CAATATAA | 0.0702
TGCGAGCA | -0.144
CGTACGGC | 0.0326
ATATAACG | -0.0674
AGGTGACG | -0.149
AAGAGTCG | 0.0677
CCCGAGAA | 0.293
ATACCCAG | -0.221
ATTGAACA | 0.011
ACGGCTAG | -0.0811
GGTGACTA | -0.0667
CCTGATGC | 0.0346
AACCCATT | -0.064
ACTGTATG | -0.147
CGGCCAGA | 0.173
GGGTCCCA | -0.115
CCGGCACG | 0.242
CGGCTAAG | 0.0764
AAAGCTAG | -0.173
CTCGAGGC | -0.164
CCCCGCAG | 0.302
CCTCTATA | -0.301
ACGAAAAA | -0.195
CGCAGCGA | -0.0285
CGCGCGTC | 0.216

Sequence | PBM E-score
ATTGTCGC | -0.0489
ATATGAGG | -0.0358
CGAAGCCC | 0.0895
GGCCACAA | -0.15
AAGCAGTG | 0.00988
GAAACGGA | 0.298
CGCAGGCC | 0.0932
AGTCGGGC | 0.155
ACTGCTCC | 0.22
GGAGCTGA | 0.146
AACGCGTG | -0.0606
AGGTTCAG | 0.0375
CTTCCTCC | 0.0756
CTTAAAAA | -0.239
AAGTCACC | -0.13
CTAAGCTA | -0.168
ACGTCGGA | 0.385
ACAGCTGA | -0.209
AGAATTAT | 0.00541
CGCGCCGC | 0.292
CATGGACG | -0.0676
CTGTGCCA | -0.172
CGCTCCCG | 0.115
ACCAACCC | -0.146
CTTAGATC | -0.228

Sequence | PBM E-score
CTGAACAA | -0.015
CGAAATCG | 0.288
AAGGGTAA | -0.0839
GATGGTCA | -0.0309
AAATCAGG | -0.222
CCAGAGGA | -0.201
CCGAACGC | 0.298
ACACGAGG | -0.182
CCTCCGAG | 0.426
TGCAAGAA | -0.0281
GAATGGAA | 0.0768
GGATCGGA | 0.438
TCTGCACA | 0.0219
GACTGTTA | -0.189
CTGTTCCA | -0.233
AAGCAGGC | -0.148
ATCATCCG | 0.219
TCGGCACA | 0.159
ACCCGGCT | 0.204
GACGGCCC | 0.00504
CCGAGTTA | 0.147
ATGGGTGC | -0.133
CTTCGTGA | -0.116
AGGAGTCC | 0.13
AGGATCTC | -0.00173

Sequence | PBM E-score
AAACACTC | 0.0185
CTGCACAA | -0.112
CAACCGAC | -0.00594
AGCACACA | -0.232
ATTTGATG | -0.035
ACGCTCTG | -0.251
CCACCATA | -0.0137
GTCTCCCA | -0.213
ACATTCAC | -0.00364
ACGTTAAC | -0.178
CGAAGATA | 0.143
AGAAGGGG | -0.198
CATCCTTA | -0.207
CCTGCGCG | 0.135
CCGCCTCA | 0.261
ATTGACTA | -0.197
CCAGGGAG | -0.259
CTCTTGGA | -0.146
GAAATCTC | 0.031
GGCCGTCA | 0.0695
GTGCACGA | -0.239
GGAGTGAC | 0.257
CAGAGAGG | -0.244
CCTTCTCG | -0.0328
ATGATATG | -0.00024

Sequence | PBM E-score
GTCGAACA | -0.147
ACTTTGAA | -0.0286
CAGTAGTC | -0.207
CACCGCTC | 0.0836
ATCACCAC | 0.0318
ATAAGGGC | -0.0568
ACTTAGCG | -0.00089
AGGCAAAC | -0.207
AATCTAAA | -0.00076
CTGATATC | 0.105
AGATGAGA | -0.162
ACCCTGAT | -0.0325
AACGATGG | -0.0108
ACAGAACT | -0.201
AAGTCTAG | -0.172
ACCATGAC | 0.0134
ACACAGTA | -0.188
ATTTGACC | 0.0505
GCAAGGAC | 0.0488
GCACCTGA | -0.27
AAGACAAC | -0.0278
GCGGAAAA | 0.379
GATAACAA | 0.0715
GAAGACTA | -0.148
GATGGCCC | -0.039

Sequence | PBM E-score
GCTACTTA | -0.351
ACTAACGG | 0.131
ATGGCGTA | -0.167
CATGGTGA | -0.193
GCGTCCCC | -0.0365
AGGGTGGC | 0.0251
CGCTCGAG | 0.0105
GACTGAGA | -0.225
CTACTCCA | -0.0976
ACTCGCCT | -0.104
ACCGACCT | 0.0213
CTCCACGC | -0.0878
CCCTAGTA | -0.0706
GACTCTGC | -0.135
GGAATGTA | 0.255
CTACCTAA | -0.0506
AGCTGGAC | -0.145
AAAACTAC | 0.13
AACAGGAT | -0.179
GGGCCAAC | -0.0523
CTTTGGCA | -0.163
AAAAGGAA | 0.0111
CCAATGTC | -0.156
ACCGGACC | 0.384
CATGGCTC | -0.158

Sequence | PBM E-score
GGTCAAAA | -0.183
CCCAGGGC | -0.12
CATGTGAA | -0.0753
AGTCGGCG | 0.215
GAAGTTTA | 0.121
ACTCGTGC | -0.124
GAGGGATC | 0.00739
CCCAACGA | -0.0549
ACCTTAGT | -0.172
GACGACTC | -0.0544
TAAGCAGA | -0.0723
CCAACGCA | -0.0713
AGGACTCA | -0.301
AACCTGAC | -0.185
AGACCTCA | -0.32
ATGGCTCA | -0.345
AATGTCCT | -0.061
AGGTACTC | -0.113
ACCTGCGG | 0.267
